Laboratory results taken from PMC9856372.
These are yes or no findings as the source states them, for the method shown. Binding seen in cells or lysates may run through a third protein. Some binding calls cover weakened binding; strength is not graded here. Where a sequence is shown, tags or fusion partners need not be part of it.

Experiments:
[1] = biological target: T1, myc-tagged PTCH1(1-1316) (UniProt Q13635); test: co-IP; HEK293 cells co-transfected with myc-PTCH1 variants and ATG101-FLAG; PTCH1 variants immunoprecipitated by the myc tag, immunoblotting; lysis buffer 50 mM Tris HCl pH 7.5, 150 mM NaCl, 1% NP-40, 0.05% sodium deoxycholate, 4 °C
T1 sequence: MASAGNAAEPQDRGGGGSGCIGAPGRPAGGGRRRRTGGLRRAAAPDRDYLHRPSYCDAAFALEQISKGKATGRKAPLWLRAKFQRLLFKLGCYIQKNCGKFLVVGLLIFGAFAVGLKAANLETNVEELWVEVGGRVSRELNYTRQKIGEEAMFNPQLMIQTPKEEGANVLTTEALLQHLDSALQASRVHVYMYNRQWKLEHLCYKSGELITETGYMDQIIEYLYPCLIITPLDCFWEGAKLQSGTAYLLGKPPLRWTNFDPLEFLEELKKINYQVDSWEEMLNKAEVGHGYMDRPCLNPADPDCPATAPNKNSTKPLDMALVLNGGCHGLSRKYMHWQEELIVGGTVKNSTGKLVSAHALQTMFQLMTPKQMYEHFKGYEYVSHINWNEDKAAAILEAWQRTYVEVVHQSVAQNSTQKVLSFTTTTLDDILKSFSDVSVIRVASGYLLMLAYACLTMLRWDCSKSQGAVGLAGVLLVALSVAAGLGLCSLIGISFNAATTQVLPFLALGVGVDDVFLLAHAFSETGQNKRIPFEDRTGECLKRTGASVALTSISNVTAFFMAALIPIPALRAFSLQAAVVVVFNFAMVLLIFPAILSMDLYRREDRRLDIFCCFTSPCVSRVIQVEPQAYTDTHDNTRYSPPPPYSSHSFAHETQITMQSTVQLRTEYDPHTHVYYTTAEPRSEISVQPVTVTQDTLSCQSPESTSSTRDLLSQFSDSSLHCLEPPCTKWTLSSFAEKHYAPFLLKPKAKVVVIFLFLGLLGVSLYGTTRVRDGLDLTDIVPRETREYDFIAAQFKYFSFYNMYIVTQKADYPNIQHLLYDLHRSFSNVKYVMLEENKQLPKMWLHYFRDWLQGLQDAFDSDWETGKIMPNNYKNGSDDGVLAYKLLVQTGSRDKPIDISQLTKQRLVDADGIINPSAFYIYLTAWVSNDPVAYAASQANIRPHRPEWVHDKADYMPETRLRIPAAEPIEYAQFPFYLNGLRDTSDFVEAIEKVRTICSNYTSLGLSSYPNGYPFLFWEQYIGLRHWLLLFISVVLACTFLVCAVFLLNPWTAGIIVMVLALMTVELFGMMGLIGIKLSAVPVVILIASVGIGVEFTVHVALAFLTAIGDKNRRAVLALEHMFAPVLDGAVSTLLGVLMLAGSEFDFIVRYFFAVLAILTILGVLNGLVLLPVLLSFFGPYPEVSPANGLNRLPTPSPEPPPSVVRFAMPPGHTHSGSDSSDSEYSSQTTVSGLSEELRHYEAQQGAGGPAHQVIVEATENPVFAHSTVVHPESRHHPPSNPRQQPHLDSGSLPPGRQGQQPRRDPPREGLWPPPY

[2] = biological target: T2, myc-tagged wild-type PTCH1(1-1447) (UniProt Q13635); test: as above
T2 sequence: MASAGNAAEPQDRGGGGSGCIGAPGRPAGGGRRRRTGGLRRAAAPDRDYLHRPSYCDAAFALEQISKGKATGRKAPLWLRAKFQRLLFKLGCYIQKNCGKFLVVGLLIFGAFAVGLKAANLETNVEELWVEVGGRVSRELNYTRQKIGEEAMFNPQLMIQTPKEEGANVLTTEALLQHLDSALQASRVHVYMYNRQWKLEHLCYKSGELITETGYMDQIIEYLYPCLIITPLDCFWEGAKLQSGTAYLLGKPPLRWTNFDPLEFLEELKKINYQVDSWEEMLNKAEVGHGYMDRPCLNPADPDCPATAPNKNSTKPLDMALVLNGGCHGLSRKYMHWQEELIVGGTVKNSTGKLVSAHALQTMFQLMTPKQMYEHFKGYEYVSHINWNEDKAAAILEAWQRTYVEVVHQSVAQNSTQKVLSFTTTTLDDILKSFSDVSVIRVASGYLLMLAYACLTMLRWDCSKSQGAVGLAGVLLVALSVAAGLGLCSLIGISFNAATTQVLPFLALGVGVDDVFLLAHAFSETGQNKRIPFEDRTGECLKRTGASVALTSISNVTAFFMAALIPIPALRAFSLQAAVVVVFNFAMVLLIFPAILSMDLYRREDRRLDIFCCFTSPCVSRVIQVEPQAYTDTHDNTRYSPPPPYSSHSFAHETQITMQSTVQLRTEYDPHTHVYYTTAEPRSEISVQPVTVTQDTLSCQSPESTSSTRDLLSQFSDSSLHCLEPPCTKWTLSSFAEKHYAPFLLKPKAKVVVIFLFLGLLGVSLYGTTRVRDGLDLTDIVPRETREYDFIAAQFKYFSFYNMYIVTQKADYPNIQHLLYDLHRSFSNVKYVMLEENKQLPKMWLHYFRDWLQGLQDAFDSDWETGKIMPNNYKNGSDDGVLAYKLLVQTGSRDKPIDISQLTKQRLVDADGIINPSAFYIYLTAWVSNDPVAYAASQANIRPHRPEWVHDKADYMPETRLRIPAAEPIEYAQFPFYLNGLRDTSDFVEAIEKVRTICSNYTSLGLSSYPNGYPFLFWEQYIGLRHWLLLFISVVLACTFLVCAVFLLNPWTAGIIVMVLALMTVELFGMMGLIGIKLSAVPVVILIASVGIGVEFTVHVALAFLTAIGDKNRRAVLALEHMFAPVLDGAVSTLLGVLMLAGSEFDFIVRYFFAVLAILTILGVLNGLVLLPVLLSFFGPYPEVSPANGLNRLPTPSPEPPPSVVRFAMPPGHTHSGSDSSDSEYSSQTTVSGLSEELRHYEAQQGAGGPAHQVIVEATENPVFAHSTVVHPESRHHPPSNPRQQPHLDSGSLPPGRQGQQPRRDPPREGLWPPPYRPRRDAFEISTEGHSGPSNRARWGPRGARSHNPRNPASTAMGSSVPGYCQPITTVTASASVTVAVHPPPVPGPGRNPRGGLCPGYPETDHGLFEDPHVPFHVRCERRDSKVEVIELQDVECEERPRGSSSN

binding [1]: no binding | binding [2]: binds
B1: ATG101-FLAG (protein, UniProt Q9BSB4 1-218)
chain: MNCRSEVLEVSVEGRQVEEAMLAVLHTVLLHRSTGKFHYKKEGTYSIGTVGTQDVDCDFIDFTYVRVSSEELDRALRKVVGEFKDALRNSGGDGLGQMSLEFYQKKKSRWPFSDECIPWEVWTVKVHVVALATEQERQICREKVGEKLCEKIINIVEVMNRHEYLPKMPTQSEVDNVFDTGLRDVQPYLYKISFQITDALGTSVTTTMRRLIKDTLAL
